# According to the RNAGym collection of RNA variant scans (doi:10.1093/nar/gkz1192):
# The source gives no read counts; variants with many changes may rest on few reads.
# B1: CPEB3 Ribozyme (parent)
# chain: UAACAGGGGGCCACAGCAGAAGCGUUCACGUCGCAGCCCCUGUCAGAUUCUGGUGAAUCUGCGAAUUCUGCUGUAUAUCUC
# Variants of: B1
# Assay: self-cleavage, relative activity (ratio to wild type); higher = more cleavage; in vitro, sequencing
# Summary of the method: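 Libraries of CPEB3 self-cleaving ribozyme mutants came from rounds of error-prone PCR and carried barcodes, which DNA sequencing matched to variants. In vitro transcription used T7 RNA polymerase at 37°C for 5 hours, with a further 15 min in DNase I before EDTA stopped the reaction; the ribozymes cleaved during both steps. The RNA was reverse transcribed with template switching and sequenced on Illumina. Relative activity is the cleaved/total read fraction of a variant divided by that of the unmutated ribozyme, averaged over three batches with at least 5 reads.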
row,Variant,self-cleavage
1,UAACAGGGGGCGACAGCAGGAGCGUUCACGUCGCAGCCCCUGUCAGAUUCUGGUGAACCUGCGAAUUCUGCUGUAUAUCUC,0.25
2,UAACAGGGGGCGACAGCAGAGGCGUUCACGUCGCAGCCCCUGUCAGAUUCUGGUGAAUCUGCGAAUCCUGCAGUAUGCCUC,0.1
3,UAACAGGGGGCGACAGCAGAAGCGUUCGCGUCGCAGCCCCUGUCAGAUACUGGUGAAUCUGCGAAUUCUGCUGUAUAUCUC,0.16
4,UAACAGGGGGCGACAGCAGAAGCGUUCACGUCGCAGCCCCUGUCGGAUUCUGGUGAAUCUGCGAAUUCUGCUGUAUAUCCC,0.24
5,UAACAGGGGGCGACAGCAGAAGCGUUCACGUCGCAGCCCCUGUCUGAUUCUGGUGCAUCUGCGAAUUCUGCUGUAUAUCUC,0.08
6,UAACAGGGGGCGACAGAAGAAGCGUUCACGUCCCAGCCCAUGUCAGAUUCCGGAGAAUCUGCGAAUUCUGCUGUAUGUCUC,0.27
7,UAACAGGGGGCGACAGGAGAAGCGUUCACGUCGCAGCCCCUGUCAGAUUCUGGUGAAUCUGCGGAUUCUGCUGUAUAUCUC,0.19
8,UAACAGGGGGCGACAGCAGAAGCGUUAACGUCGCAGCCCCUGUCAGAUUCUGGUGAAUCUGCGAAUCCUGCUGCAUAUCUC,0.09
9,UAACAGGGGGCGACAGCAGAAGCGUUCACGUCGCAGCCCACGUCUGAUUCUGGUGAAUCUGCGAAUUCUACUGCAAAUCUC,0.08
10,UAACAGGGGGCGACAACAGAAGCGAUCACGCCGCAGCCCCCGUCAGAUCCUGGUGAAUCUGCGAAUUCUGCUGUAUAUCCC,0.05
11,UAACAGGGGGCGACAGCAGAAGCGACCAGGUCGCAGCCCCUGUCAGAUUCUGGUGAAUCUGCGAAUUCUGCUGAAUAUCUC,0.04
12,UAACAGGGGGCGACAGCAGAAGCGCUCGCGUAGCAGCCCCGGUCAGAUUCAGGUGAAUCUGCGAAUUCUGCUGUAUAUCUC,0.06
13,UAACAGGGGGCGACAGCAGAAGCGCUCACGUCGCAGCCCCUGUCAGAUUCUGGUGAAUCUGCGGAUUCUGCUGUAUAUCUC,0.28
14,UAACAGGGGGCGACAGCAGAAGCGUACACGUGGCAGCCCCUGUCAGAUUCUGGUGAGUCUGCGAAUUCAGCUGUAUAUCUC,0.05
15,UAACAGGGGGCGACAGCAGAAGCGUCCACGCCGCAGCCCCUGUCAGAUUCUGGUGAGUCUGCGAAUUCUGCUGUAUAUCUC,0.21
16,UAACAGGGGGCGACAGCAGAAGCGUUCACGUCGCAGCCCCAGUCAGAUUCUGGUGAAUUUGCGAAUUCUGCUGUAUAUCUC,0.09
17,UAACAGGGGGCGACAGCAGAAGCGUUCACGUCGCAGCCCCAGACAGAUUCUGGCGAGUCCGCGAAUUCUGCUGUACAUCUC,0.08
18,UAACAGGGGGCGACAGCAGAAGCGUUCACGUCGCAGCCCCCGUCAGAUUCUGGUGAAUCUGCGAAUUCUGCUGUGUACCUC,0.9
19,UAACAGGGGGCGACAGCAGAAGCGUUCACGUCGCAGCCCCUGACAGAUUCUGGUGAAUCUGCGAAUUCUGCUGUAUAUCUA,1.22
20,UAACAGGGGGCGACAGCAGAAGCGUUCACGUCGCAGCCCCUGACAGAUUCAGGUGAAUCUGCGAAUUCUGCUGUAUAUCUA,1.21
21,UAACAGGGGGCGACAGCAGAAGCGUUCACGUCGCAGCCCCUGUCAGACUCAGGUGAAUCUGCGAAUUCUGCUGUAUAUCUC,0.11
22,UAACAGGGGGCGACAGCAGAAGCGUUCACGUCGCAGCCCCUGUCAGAUCCUGGUGAAUCUGCAAAUCCUGCUGUAUAUCUC,0.06
23,UAACAGGGGGCGACAGCAGAAGCGUUCACGUCGCAGCCCCUGUCAGAUUCGGGUGAAUCUGCGAAUUCUGCUGUAUAUCAC,0.86

row,Variant,self-cleavage
1,UAACAGGGGGCGACAGCAGAAGCGUUCACGUCGCAGCCCCUGUCAGAUUCUGGAGAAUCUGCGAAUUCUGCUGUGUAUCUC,0.22
2,UAACAGGGGGCUGCAGCAGAAGCGUUCGCGCCGCAGCCCCUGUCAGCUUCAGGUGAAUCUGCGAAUUCUGCUGUAAAUCUC,0.06
3,UAACAGGGGGCUGCAGCAGAAGCGUUCACGUCGCCGCCCCUGUCAGAUUCUGGUGGAUCUGCGAAUUCAGCUGUAUAGCUU,0.11
4,UAACAGGGGGCUGCAGCAGAAGCGUUCACGUCGCGGCCCCUGCCAGAUUCUGGUGAAUCUGCGAAUCCUGCUGUACAUCUC,0.08
5,UAACAGGGGGCUGCAGCAGAAGCGUUCACGUCGCAGCCCCUGUCAGAUUCUGGUGUAUCUGCGAAUUCUGCUGUAUAUCUC,0.25
6,UAACAGGGGGCUGCAGCAUAAGCGUUCACGUCGCAGCCCCUGACAGAUUCUGGUGGUUCUGCGAAAUCUGCUGUAUAUCUC,0.04
7,UAACAGGGGGCUGCAGCAGAAGCGUUCACGACGCAGCCCCUGUCCGAUCCUGGUGAAUCUGCGAAUUCUGCUGUAUAUCUC,0.22
8,UAACAGGGGGCUGCAGCAGAAGCGUUCACGACGCAGCCCCUGUCACAUUCUGGUGAAUCAGCGAAUUCAGCUGUAUAUCUC,0.09
9,UAACAGGGGGCUGCAGCAGAAGCGUUCACGUCGCAGCCCCCGUCAGAUUCUGGUGAAUCUGCGAAUUCUGCCGUAUAUCUC,0.43
10,UAACAGGGGGCUGCAGCAGAAGCGUUCACGUCGCAGCCCCUGUCAGAUUCUGGUGAAUCUGCGAAUUCUGCUGUAUACCUC,0.91
11,UAACAGGGGGCUUCAGCAGAGGCGUUCACGUCGCAGCCCCUGUCAGAUUCCGGUGUGUCUGUGAAUUCUGCUGUAUAUCUC,0.28
12,UAACAGGGGGCUUCAGCAGAUGCGUUCACGUCGCAGCUCCUGUCAGAUUCUGGUGACUCUGCGAACUCCGCUGUAUAUCUC,0.05
13,UAACAGGGGGCUUCAGCAGAAGCGCUCACGUCGCAGCCCCUGUCAGAUUCUGGUGAAUCUGCGGAUUCUGCUGCAUACCUC,0.15
14,UAACAGGGGGCUUCAGCAGAAGCGUUCACGACGCAGCCCCUGUCAGAUUCUGGUGAAUCUGCGAAUUCUGCUGUAUAUCUC,1.09
15,UAACAGGGGGCUACCGCAGAAGCGUUCACGUCGCAGCCCCUGUCAGAUUCUGGUGGAUCUGCGAAUUCUGCUGUAUAUCUC,1.21
16,UAACAGGGGGCUACCGCAGAAGCGUUCACGUCGCAGCCCCUGUCAGAUUCUGGUGAGUCUGCGAAUUCUGCUGUAUAUCUC,1.14
17,UAACAGGGGGCUACCGCAGAAGCGUUCACGUCGCAGCCCCUGUCAGAUUCUGGUGAAUCCGCGAAUCCUGCUGUAUAUCUC,0.46
18,UAACAGGGGGCUACGGCAGGAGCGUUCACGUCGCAGCCCCUGUCAGAUUCUGGUGAAUCUGCGAAUUCUGCCGUAUGUCUC,0.79
19,UAACAGGGGGCUACGGCAGAAGCGUUCACGUCGCGGCCCCUGACAGAUUCUGGUGAAUCUGCGAAUCCUGCUGUAUAUCUC,0.38
20,UAACAGGGGGCUACGGCAGAAGCGUUCACGUCGCAGCCCCUGUCAGAUUCUGGUGUAUCUGCGAAUUCUGCUGUAUAUCCC,0.46
21,UAACAGGGGGCUACGGCAGAAGCGUUCACGUCGCAGCCGCAGUCAGAUUCUGGUGUAUCUGAGAAUUCGGCUGUAUAUCUC,0.04
22,UAACAGGGGGCUACGGCACAAGCGUUCACGUCGCAGCCCCUGUCAGAUUCUGGUGAAUCUUCGAACUCUGCUGUAUAUCUC,0.13
23,UAACAGGGGGCUACGGCAGAAGCGUUCACGUCACAGCCCCUGUCGGAUUCUGGUGAAUCUGCGAAUUCUGCUGCAUAUCCC,0.08

row,Variant,self-cleavage
1,UAACAGGGGGCUACGGCAGAAGCGUUCACGUCGCAGCCCCAGUCUGAUUCUGGUGGAUCUGCGAAUUCUGCUGUAUAUCUC,0.03
2,UAACAGGGGGCUACGGCAGAAGCGUUCACGUCGCAGCCCCUGUCAGACUCUGGUGAAUCUGCGAAUUCUGCUGUAUAUCCC,0.33
3,UAACAGGGGGCUACGGCAGAAGCGUUCACGUCGCAGCCCCUGUCAGAUCCUGGUGGAUCCGCGAAUUCUGCCGUAUAUCUC,0.71
4,UAACAGGGGGCUACUGCGGAAGCGUCCACGUCGCAGCCCCCGUCAGAUCCUGGUGAAUCUGCGGAUUCUGCUGUAUAUCUC,0.04
5,UAACAGGGGGCUACUGCAGGAGCGUACACGUCGCAGCCCCUGUCAGAUUCUGGUGAAUCUGCGAAUUCUGCAAUAUAUCUC,1.19
6,UAACAGGGGGCUACUGCAGAUGCGUUCACGUCGCUGCCCCUGUCAGAUUCUGGUGGAUCUGCGGAUUCUGCAGUAUAUCUC,0.22
7,UAACAGGGGGCUACUGCAGAAGCGUUCACGUCGCAGCCUCUGUCAGAUUCUGGUGAAUCUGCGAAUUCCGCUGUAUAUCUC,0.22
8,UAACAGGGGGCUACUGCAGAAGCAUUCAUGUCGCGGCCCCUGUCAGAUUCUGGUGAAUCUGCGAAUUCUGCCAUAUAUCUC,0.05
9,UAACAGGGGGCUACUGCAGAAGCGUUCACGCCGCAGCCCCAGUCAGAUUCUGGUGAAUCUGCGAAUUCUGCUGUAUAUCUC,0.21
10,UAACAGGGGGCUACUGCAGAAGCGUUCACGUCGCAGCCCCUGCCAGAUUCUGGUGAACCUGCGAAUUCAGCUGUAUUUCUC,0.02
11,UAACAGGGGGCUACUGCAGAAGCGUUCACGUCGCAGCCCCUGUCAGAAUCUGGUGAAUCUGCGAAUUCUGCUGUAUAUCUC,0.53
12,UAACAGGGGGCUACUGCAGAAGCGUUCACGUCGCAGCCCCUGUCAGAUUCUGGCGAAUCUGCGAAUUCUGCUGUAUACCUC,1.09
13,UAACAGGGGGCUACAGCGGGAGCACUCACGUCGCAGCCCCUGUCAGAUUCUGGUGAAUCCGCGAAUUCUGCUGUAUAUCUC,0.03
14,UAACAGGGGGCUACAGCGGAAGCGUUCACGUCGCGGCCCCUGUCAGAUUCUGGUGAAUCUGCGAAUUCUGCUGUAUAUCUC,0.33
15,UAACAGGGGGCUACAGCGGAAGCGUUCACGUCGCAGCCCCUGUCAGAUUCUGGUGAAUCAGCGGAUUCUGCUGUAUAUCUC,0.18
16,UAACAGGGGGCUACAGCUGAAGCGUUCACGUCGCAGCCCCUGUCAGAUUCUGGUGGAUCUGCGAGUCCUGCUGUACAUCUC,0.21
17,UAACAGGGGGCUACAGCUGAAGCGUUCACGUCGCAGCCCCAGCCAGAUUCUGGUAAAUCUGCGAAUUCGGCUGUAUAUCUC,0.05
18,UAACAGGGGGCUACAGCUGAAGCGUUCACGUCGCAGCCCCGGUCAGAUUCUGGUGGAUCUGCGAAUUCUGCUGUAUAUCUC,0.29
19,UAACAGGGGGCUACAGCUGAAGCGUUCACGUCGCAGCCCCUGUCAGAUUCUGGUGAAUCUGCGAAUUCUGCUGUAUAACUC,0.74
20,UAACAGGGGGCUACAGCAGCAGCGUUCACGUCGCCGCCCCUGUCAGAUUCUGGUGAGUCCGCGAAUUCUGCUGUAUAUCUC,0.05
21,UAACAGGGGGCUACAGCAGGAGCGUUCACGUCGCGGCCCCUGUCAGAUUCUGGUGAAUCAGCGAACUCUACUGUAUAUCUC,0.2
22,UAACAGGGGGCUACAGCAGGAGCGUUCACGUCGCAGCCCCUGUCAGAUUCUGGUGAAUCUGCGUUUUCUGCUGUAUAUCUC,0.1
